Laboratory results taken from PubChem BioAssay AID493208 (National Center for Advancing Translational Sciences (NCATS), 2011).
In all, about 44,000 compounds went through this assay and about 340 (0.77%) were called active. Not shown: some 5% with an inconclusive outcome. The call rests on the fitted dose curve; in most records, active means well fitted inhibition curve with a large enough effect; inconclusive means small, poorly fitted or top-dose-only effect; inactive means flat fitted curve, though single readings scatter. The list shows a part of the results.

assay: Acumen qHTS Assay for Inhibitors of the mTORC1 Signaling Pathway in MEF (Tsc2-/-, p53-/-) Cells: Sytravon; details: phospho-rpS6 immunofluorescence/PI, 24 h; series mostly up to 38.3 µM; activity change, negative = inhibition: at the top concentration;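 further: plate controls were DMSO for no effect and rapamycin for full effect; nearly all actives have a fitted effect of over 50% in size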
In short: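 Tsc2-/-, p53-/- mouse embryonic fibroblasts (empty-vector line) exposed to compound 24 hrs at 37 C, fixed, immunostained for phospho-rpS6 and counterstained with propidium iodide. Acumen laser scanning gives % positive cells from Alexa 488/PI ratio, thresholded using 7.5 nM rapamycin; PI count gives viability.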

Activity change, negative = inhibition, inactive:
CCOc1ccccc1NC(=O)N1c2ccccc2Sc2ccccc21 -9.54%
COc1ccc(Nc2cc(C(=O)NCc3cccs3)c3ccccc3n2)cc1 5.84%
O=C(CCCCn1c(=O)c2ccccc2n(CC(=O)Nc2ccc(F)cc2F)c1=O)NCc1ccccc1Cl -1.73%
O=C(CSc1ncc(-c2ccccc2)[nH]1)Nc1ccc(F)cc1F -38.8%
CCCCOC(=O)Cn1nnc2sc(-c3ccccc3)cc2c1=O -6.07%
CN1CCN(C(=O)C(=O)Nc2c3c(nn2-c2cccc(Cl)c2)CSC3)CC1 -0.836%
CCOC(=O)c1c(C)[nH]c(C)c1S(=O)(=O)N1CCCC(C(=O)NCc2ccc(C)cc2)C1 (stereo not given) -1.71%
Cc1ccc(Cn2c(=O)n(CCc3ccccc3)c(=O)c3c(C)c(C)sc32)cc1 -1.2%
CCc1ccccc1N1C(=O)N(CC(=O)c2ccc(Cl)cc2)c2ccccc2S1(=O)=O -5.57%
COC(=O)c1c(SC)nc2ccccc2c1OCc1ccc(C)cc1 -2.63%
CCOC(=O)Cn1c(=O)oc2cc(S(=O)(=O)N3CCCC(C)C3)ccc21 (stereo not given) -0.679%
O=C(NCc1ccc(Cl)cc1)c1ccc2oc(=O)n(Cc3ccccc3)c2c1 -0.338%
CCOC(=O)c1cc(S(=O)(=O)N2CCN(c3cccc(OC)c3)CC2)[nH]n1 -0.419%
CCCCn1cc(S(=O)(=O)c2ccc(Cl)cc2)c(=O)c2cc(F)c(N3CCCC(C)C3)cc21 (stereo not given) -2.03%
COC(=O)c1c(-c2ccc(Cl)cc2)noc1N1CCN(c2cccc(C)c2C)CC1 -18.4%
CCc1cnc2c(c1SCC(=O)Nc1ccc(OC)c(OC)c1)c(=O)n(C)c(=O)n2C -7.14%
CCOc1ccc(CNC(=O)Cn2cc3c(n2)-c2c(oc(C(=O)N4CCCC4)c2C)CC3)cc1 -9.45%
COc1cccc(CNC(=O)Cn2nc3c(cc2=O)CCCC3)c1OC -7.04%
CC1CCCN(C(=O)CCS(=O)(=O)c2cc3c(cc2Cl)NC(=O)CO3)C1 (stereo not given) -2.23%
O=C(CCCn1c(=O)[nH]c2ccsc2c1=O)N1CCN(c2cccc(C(F)(F)F)c2)CC1 -0.217%
Cc1cc(Cl)ccc1NC(=O)CN1C(=O)COc2ccc(S(=O)(=O)N3CCC(C)CC3)cc21 -1.46%
CCOC(=O)c1noc2ncn(Cc3cccc(C#N)c3)c(=O)c12 -0.235%
CCOc1ccc(CCNC(=O)CCCc2nnc3n(C)c(=O)c4sccc4n23)cc1OCC 3.4%
COc1ccccc1CN(Cc1ccco1)c1cnc(S(C)(=O)=O)nc1C(=O)Nc1ccccc1Cl 0.102%
CCNc1nc(NC(C)CC)nc(Oc2ccc(OCC)nn2)n1 (stereo not given) 5.48%
COc1ccc(NC(=O)NCc2c(-n3cccc3)sc3c2CCCC3)c(OC)c1 1.47%
CCc1cccc(C)c1NC(=O)NC1COc2ccccc2C1 (stereo not given) 0%
COc1ccc(OCC(=O)Nc2nc(-c3ccc(Br)cc3)ns2)cc1 0%
COc1ccc(NC(=O)CSc2nc(-c3ccc(OC)c(OC)c3)[nH]c2-c2ccc(C)cc2)cc1 0.454%
CCOC(=O)Cc1ccc(NC(=O)N(C(C)C)C2CCN(C(C)=O)CC2)cc1 2.97%
COc1ccc(NCc2cc3cc4c(cc3n(CC(=O)Nc3ccccc3)c2=O)OCO4)cc1 -8.45%
Cn1c(=O)c2c(n3c4ccccc4nc13)NC(=O)CC2c1cccc(Cl)c1 (stereo not given) 0.366%
COc1ccc(Cl)cc1NC(=O)Cn1nnc(C(=O)NCc2ccc3c(c2)OCO3)c1N -0.352%
COC(=O)c1sccc1S(=O)(=O)N1CCN(c2ccc(C(C)=O)cc2)CC1 -0.249%
Cc1ccc(Cn2c(CN3CCC(C(=O)NCC(C)c4ccccc4)CC3)cc3ccccc32)cc1 (stereo not given) -19.1%
CCOC(=O)c1c(NC(=O)CSc2cn(CCNC(=O)c3c(F)cccc3F)c3ccccc23)sc2c1CCCC2 -2.13%
CCOCCc1nn2c(=O)cc(COC(=O)c3cccc(C)c3)nc2s1 -3.6%
Cc1ccc(-c2cc(C(=O)Nc3c(C(=O)c4ccc(C)c(F)c4)oc4ccccc34)no2)cc1 -3.24%
Cc1ccc(C)c(N2CCN(C(=O)C3CCCN(S(=O)(=O)c4cccc5nonc45)C3)CC2)c1 (stereo not given) -8.87%
COc1ccc(S(=O)(=O)NCCc2sc(-c3ccccc3)nc2C)cc1F -9.24%
Cc1ccc(Cl)cc1N1CCN(S(=O)(=O)c2ccc(-c3cnc(C4CC4)o3)cc2)CC1 0.93%
CC(=O)c1ccc(NC(=O)c2cc(C3CC3)nc3c2c(C)nn3-c2ccc(C)cc2)cc1 -2.52%
COc1ccc(C(=O)N2CCN(C(=O)COc3ccc(C)cc3)CC2)cc1OC 1.46%
CC(C)c1ccc(NC(=O)CN2C(=O)CCc3cc(S(=O)(=O)N4CCOCC4)ccc32)cc1 23.1%
O=C(Nc1ccccc1F)C(Cc1ccccc1)N1Cc2ccccc2C1=O (stereo not given) 1.85%
O=C(Cn1cc(S(=O)(=O)N2CCN(c3ccccc3F)CC2)c2ccccc2c1=O)Nc1ccc(F)cc1Cl -19%
COc1ccc(S(=O)(=O)NCCc2sc(-c3cccc(F)c3)nc2C)cc1 3.85%
COc1cc2c(C(=O)N3CCN(c4cc(Cl)ccc4C)CC3)cn(CC(C)C)c(=O)c2cc1OC 8.44%
CCCOc1ccc(-c2cccc(NS(=O)(=O)c3ccc(CC)cc3)c2)nn1 1.52%
COc1ccc(NC(=O)CN2CCN(c3ccccc3F)CC2)c(OC)c1 0.333%
Cc1cc(C)c(NC(=O)CN(C)S(=O)(=O)c2ccc3c(c2)c(=O)n(C)c(=O)n3C)c(C)c1 -0.821%
CCC1=C(c2ccc(C)cc2)S(=O)(=O)N=C1N1CCC(C(=O)NCc2ccc(C)cc2)CC1 -0.309%
Cc1ccc(NC(=O)CSc2nccn2Cc2ccc3c(c2)OCO3)c(C)c1 1.97%
CCC(C)NC(=O)CCC(=O)NNc1nc2ccccc2c2nc(C)nn12 (stereo not given) 2.02%
CCCSCCCNC(=O)CN1C(=O)CCn2nc(-c3cn(C)c4ccccc34)cc21 0.458%
COc1cc(NS(=O)(=O)c2ccc(NC(=O)c3ccc(OC)c(Br)c3)cc2)nc(OC)n1 8.75%
Cc1ccc(-c2nn3c(=O)cc(CN4CCN(C(=O)c5ccc(C(C)(C)C)cc5)CC4)nc3s2)cc1 2.67%
COCCn1c(=NC(=O)c2ccc3c(c2)OCCO3)sc2cc(NC(C)=O)ccc21 1.4%
CCc1ccc(S(=O)(=O)n2ccnc2)cc1 0%
O=C(Nc1ccc(F)cc1F)N1CCc2c(sc3c2CCCC3)C1c1ccc(F)cc1 (stereo not given) 0%
